In PubChem BioAssay AID1508642 (National Center for Advancing Translational Sciences (NCATS), 2021):
Out of some 43,000 compounds screened, about 200 (0.47%) were called active. Another 12% or so got no clear call; they are omitted. Calls follow the shape of the dose curve; as a rule, active = well fitted cell-killing curve with a large enough effect; inconclusive = small, poorly fitted or top-dose-only effect, or effect the other way; inactive = flat fitted curve, though single readings scatter. Some of the results follow.

assay: Cell viability qHTS assay in S16 Pmp22-F2sN cells; conditions: S16 Pmp22-F2sN Schwann cells (luciferase reporters placed in the Pmp22 gene) viability, CellTiter-Glo, 24 h; series mostly up to 57.5 µM; activity change, negative = cytotoxicity: at the top concentration; also: nearly all actives have a fitted effect of over 65% in size
Source text: Assay Provider: Jim Inglese Ph.D. National Center for Advancing Translational Science, National Institutes of Health, Rockville, MD CMT is a heterogeneous group of neurological disorders that affect approximately 1 in 2,500 people. In particular, the most common form of CMT, CMT1A is genetically linked to the duplication of the PMP22 gene which leads to Schwann cell overexpression, thus manifesting itself as a typical case of dose-sensitive diseases. To identify small molecule compounds that can mediate the expression of PMP22 we developed a phenotypic assay screening strategy by utilizing genome editing techniques to construct Schwann cell lines containing novel reporter technology to monitor the transcriptional or translational regulation of PMP22. For high sensitivity we use a bioluminescent reporter system embedded in the 3' UTR of the PMP22 gene (S16(c9) Pmp22-F2sN) to identify compounds that inhibit gene expression. […] We can further discriminate the effect of all transcriptionally active molecules on PMP22 translation or stability with an assay that incorporates a short NLuc peptide (HiBiT) at the C-terminus of expressed PMP22 (S16(f8) PMP22-HiBiT) allowing alpha complementation and luminescence detection of membrane-associated PMP22 protein. These assays were screened against the NCATS Sytravon Library Collection. Miniaturization of these assays to 1536-well plate format for quantitative high throughput screening (qHTS) yielded rich data sets immediately from the qHTS assay (S16(c9) Pmp22-F2sN), when compared with data from a cell viability assay (Cell TiterGlo) to identify compounds that decreased the output signals through cellular toxicity to streamline the selection process of actives for subsequent characterization using the HiBiT assay (S16(f8) PMP22-HiBiT).
Cell viability assay in S16 Pmp22-F2sN cells PROTOCOL TABLE (format as described by Inglese J, Shamu CE and Guy RK. 2007) SEQUENCE No. (e.g., 1, 2, 3, etc.); […] (e.g., Cells, Incubation, Reagent, etc.); VALUE and DESCRIPTION. 1. Cells. Add 500-1,000 cells in 4 uL in growth media (DMEM High Glucose, No Phenol Red media + 10% heat-inactivated FBS + 1% Pen/Strep supplemented media) per well into Greiner 1536-well white/solid bottom high base, TC-treated plates. 2. Compounds. Library compounds and controls added at 23nL per well, transferred by Pin Tool. 3. Incubation. Incubate plates at 37C, 5% CO2, 95% RH for 24 h. 4. Reagent. Add 3uL CellTiter-Glo per well of Greiner 1536-well plates. 5. Incubation. Incubate plates at room temperature for 15 min., protect from light. 6. Detector. FLuc luminescence measured using CCD-based camera (Viewlux). NOTES (numbers refer to Sequence numbers above; values are from representative experiments) 6. Luminescence Read: Clear filter; Exposure = 1 sec, Gain = High, Speed = Slow, Binning = 2X REFERENCES: 1. Inglese J, Shamu CE and Guy RK, Reporting data from high throughput screening of small molecule libraries, Nature Chemical Biology, 2007, 3(8): 438-441. doi.org/10.1038/nchembio0807-438 2. Yasgar A, Shinn P, Jadhav A, Auld DS, Michael S, Zheng W, Austin CP, Inglese J and Simeonov A, Compound Management for Quantitative High-Throughput Screening. J. Assoc. Lab. Auto., 2008, 13: 79-89. doi: 10.1016/j.jala.2007.12.004
% is scaled to controls: 0 for no effect and ±100 for the full control effect.

Compound | activity change, negative = cytotoxicity
COc1cc2c(=O)n(Cc3ccccc3Cl)c(=O)n(CC(=O)Nc3ccccc3)c2cc1OC | inactive: 6.91%
COc1ccc(C)cc1NC(=O)C1CCN(S(=O)(=O)c2c(C)noc2/C=C/c2ccco2)CC1 | inactive: 11.2%
COc1cccc(-n2c(-c3ccc(Cl)cc3)cc3c2CC(C)(C)CC3=O)c1 | inactive: -5.61%
O=C(Nc1ccc(F)cc1F)C(Cc1ccccc1)N1Cc2ccccc2C1=O (stereo not given) | inactive: -13.9%
COc1ccc(CN2C(=O)c3oc4ccc(F)cc4c(=O)c3C2c2ccc(O)cc2)cc1 (stereo not given) | inactive: -0.73%
Cc1ccc(C(=O)Nc2nc3ccc(S(=O)(=O)N4CCCC4)cc3s2)cc1 | inactive: -11.3%
Cc1ccc(-c2nnc(SCC(=O)NC3CCCC3)nc2-c2ccc(C)cc2)cc1 | inactive: -2.21%
CSc1ccc(CNC(=O)C2CCCN(S(=O)(=O)N(C)c3ccc(F)cc3)C2)cc1 (stereo not given) | inactive: -0.325%
CCOc1ccc(CCNC(=O)CCCn2c(=O)c3cccn3c3cccnc32)cc1OCC | inactive: 16.7%
CCc1ccc2c(c1)c(=O)c(S(=O)(=O)c1ccc(Cl)cc1)cn2CC | inactive: -6.82%
COc1ccc(OCC(=O)Nc2cc(-c3ccccc3F)nn2-c2ccccc2)cc1 | inactive: -29.2%
CCc1ccc(CNC(=O)c2cc3cc(S(=O)(=O)N4CCCCC4)ccc3n2C)cc1 | inactive: -15.7%
Cc1ccc(S(=O)(=O)NCC2CCC(C(=O)NCc3ccc(F)cc3)CC2)cc1 (stereo not given) | inactive: 0.183%
CCCn1ccc2c(OCC(=O)Nc3cc(C)ccc3C)cccc2c1=O | inactive: -22.2%
Nc1c(C(=O)NCc2ccc(Cl)cc2Cl)nnn1Cc1ccc(Br)cc1 | inactive: -9.56%
Cc1ccc2c(=O)cc(C(=O)Nc3ccc(S(=O)(=O)N4CCC(C)CC4)cc3)oc2c1C | inactive: -2.21%
COCCCn1c(=N)c(C(=O)NCC2CCCO2)cc2c(=O)n3cc(C)ccc3nc21 (stereo not given) | inactive: 26%
Cc1ccc(Nc2c(-c3ccc(N(C)C)cc3)nc3nc[nH]n23)cc1 | inactive: -4.43%
COc1ccc(-c2nc3ccccc3n3c(-c4cccc(C)c4)c4c(=O)n(C)c(=O)n(C)c4c23)cc1 | inactive: 7.12%
CSc1nc(=O)c2c(n1C)NC(=O)CC2c1ccccc1OC(C)C (stereo not given) | inactive: -2.01%
O=C(Cc1ccccc1)Nc1sc2c(c1C(=O)Nc1ccccc1)CCCCC2 | inactive: -12.3%
COc1cc(C2CC(=O)Nc3c2c(C)nn3-c2nc(C)cc(C)n2)cc(OC)c1O (stereo not given) | inactive: -1.78%
COc1cccc(-c2nn3c(=O)cc(CN4CCN(S(=O)(=O)c5ccc(C)cc5)CC4)nc3s2)c1 | inactive: 15.1%
Cc1ccc(CSc2nnc(-n3c(=O)c(C#N)cc4c(=O)n5cccc(C)c5nc43)s2)cc1 | inactive: 3.21%
CCN1CCN(C(c2ccc(OC)cc2)c2c(O)cc(C)n(Cc3ccco3)c2=O)CC1 (stereo not given) | inactive: -6.69%
CCN(CC)c1nc2c(-c3cccc(Br)c3)nnn2c2ccccc12 | inactive: 7.46%
COc1cccc(NC(=O)C2CCN(S(=O)(=O)c3cccc4nonc34)CC2)c1 | inactive: -0.361%
COc1cccc(NC(=O)Cn2c(=O)cc(C)c3c(C)nn(-c4cccc(F)c4)c32)c1 | inactive: -10.2%
CC1CCCCN1C(=O)Cn1c(=O)n(-c2ccc(Cl)cc2)c(=O)c2c3c(sc21)CCC3 (stereo not given) | inactive: -1.31%
COc1cc(NS(=O)(=O)c2cnc(N)nc2)cc(OC)c1 | inactive: 2.48%
